Measured values from PubChem BioAssay AID1346428 (National Center for Advancing Translational Sciences (NCATS), 2018).
Among all 48,000 compounds or so, about 1,200 (2.5%) were called active. Inconclusive results (about 2%) are left out.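 Rule for the calls: active = activation of at least 60% and not above a set upper limit (about 1 call in 100 departs from these limits); inconclusive = activation of 40% to 60%, or above that upper limit; inactive = activation under 40%.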 This is one part of the list.

molecular target: Probable G-protein coupled receptor 32 (Homo sapiens) (UniProt O75388); test: qHTS for Agonists of Human Resolvin D1 Receptor DRV1; conditions: CHO-K1 GPR32 beta-arrestin PathHunter luminescence, 90 min; at 76.9 µM; stronger effect = higher value; zero percent set by DMSO-only wells
Sequence of UniProt O75388 (O75388 whole entry, looked up): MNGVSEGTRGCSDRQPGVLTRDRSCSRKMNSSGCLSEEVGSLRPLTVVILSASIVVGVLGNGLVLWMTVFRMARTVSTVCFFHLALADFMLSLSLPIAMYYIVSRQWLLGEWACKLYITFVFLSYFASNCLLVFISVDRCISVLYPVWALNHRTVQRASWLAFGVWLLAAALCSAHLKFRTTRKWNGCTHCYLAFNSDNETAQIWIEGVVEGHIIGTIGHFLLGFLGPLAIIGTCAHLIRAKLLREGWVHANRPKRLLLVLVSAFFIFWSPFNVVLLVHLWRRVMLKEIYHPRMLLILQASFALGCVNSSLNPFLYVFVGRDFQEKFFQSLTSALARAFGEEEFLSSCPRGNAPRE
Summary of the method: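 Using DMSO wells as EC0, agonist-induced signal was taken as chemiluminescence from beta-Gal reconstituted upon beta-arrestin recruitment to GPR32 in CHO-K1 cells after 90 min compound treatment.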

Compound | activation
O=C(Nc1ccc(Cl)cc1C(F)(F)F)c1cc(S(=O)(=O)N2CCOCC2)ccc1F | inactive: -9.94%
CCOc1ccc(S(=O)(=O)n2nc(C)c(S(=O)(=O)N3CCCCC3)c2C)cc1 | inactive: 1.47%
CC(C)(C)OC(=O)N1CCC(c2c(C(=O)NCc3ccco3)cnn2-c2ccccc2Cl)CC1 | inactive: -16.3%
Cc1nn(CCCC(=O)NCc2ccccc2)c(=O)c2cc3sccc3n12 | inactive: -3.13%
CCCC(=O)n1nc(-c2cccnc2)nc1NCc1ccc(OC)cc1 | inactive: -25.6%
COc1ccc(C(=O)Nc2cc3c(cc2N2CCCC2)n(C)c(=O)c(=O)n3C)cc1OC | inactive: -5.4%
N/C(=N\N=C\c1ccc(Cl)cc1)N/N=C/c1ccc(Cl)cc1 | inactive: 8.65%
CC(=O)c1cc(-c2ccccc2)n(CCC(=O)NC(C)c2ccccc2)c1C (stereo not drawn) | inactive: -16.8%
COC(=O)c1ccccc1NS(=O)(=O)c1ccc2c(c1)CCCN2C(C)=O | inactive: 6.34%
CCOc1cc(C(=O)Nc2ccc(-c3nc4ccccc4s3)cc2Cl)cc(OCC)c1OCC | inactive: -4.46%
Cc1cccc(C)c1NC(=O)Cn1c(=O)n(Cc2ccc3c(c2)OCO3)c(=O)c2oc3ccccc3c21 | inactive: -18.6%
O=C(Nc1ccc(Br)cc1)C(Cc1ccccc1)NS(=O)(=O)c1cccc2nsnc12 (stereo not drawn) | inactive: -19.7%
COc1ccccc1NC(=O)Cn1nc(-c2ccc(C)cc2)c2c(c1=O)CCCC2 | inactive: 29.6%
Fc1ccc(-n2ncc3c(NCCC4=CCCCC4)ncnc32)cc1 | inactive: 38.9%
COc1ccc(C(=O)Nc2cc(S(=O)(=O)c3ccc(Cl)cc3)c(O)c(C)c2C)cc1 | inactive: 12.6%
CCOc1ccc(OCC)c(NC(=O)C(NS(=O)(=O)c2cccs2)c2ccccc2)c1 (stereo not drawn) | inactive: 20.8%
Cc1ccc(CNC(=O)c2c(C)oc3nc(C)nc(N4CCOCC4)c23)cc1 | inactive: -5.43%
CC(C)(C)c1ccc(C(=O)NCC(c2cccs2)S(=O)(=O)c2cccs2)cc1 (stereo not drawn) | inactive: -7.61%
CCc1ccc(-n2nc3cc(C)c(NC(=O)c4cc(OC)cc(OC)c4)cc3n2)cc1 | inactive: -30.9%
Cc1ccc(NC(=O)CSc2nnc(-c3ccc(Br)cc3)o2)c(C)c1 | inactive: -12.3%
COc1ccc(NC(=O)Cn2nnc3sc4c(c3c2=O)CCCC4)cc1 | inactive: -11.6%

Compound | activation
CCOC(=O)Cn1c(=O)oc2cc(S(=O)(=O)N3CCC(C(=O)OCC)CC3)ccc21 | inactive: 1.58%
Cc1ccc(OCC(=O)Nc2ccc3nc(SCCOc4ccccc4)sc3c2)cc1 | inactive: 18.6%
Cc1ccc(NC(=O)CN2C(=O)COc3ccc(S(=O)(=O)Nc4ccccc4)cc32)c(C)c1 | inactive: -0.0904%
COc1ccc(CNC(=O)c2ccc3nc(C(C)C)oc3c2)cc1OC | inactive: -19%
Cc1cc(C)c(NC(=O)CSc2nc3ccncc3[nH]2)c(C)c1 | inactive: 11.5%
Cc1ccc(C2=NC(c3ccccc3)=Nc3ccc(Cl)cc3N2)cc1 | inactive: -18.5%
CCc1ccc(NC(=O)CCc2nnc3n(C)c(=O)c4sccc4n23)cc1 | inactive: -3.25%
COCCCNC(=O)CSc1nc(-c2ccc(OC)c(OC)c2)[nH]c1-c1ccc(F)cc1 | inactive: -26.6%
Cc1cc(C)c2c(=O)cc(C(=O)NCc3ccc(S(N)(=O)=O)cc3)oc2c1 | inactive: -2.74%
COC(=O)c1cc2oc3ccccc3c2n1Cc1c(C)cc(C)cc1C | inactive: -20.8%
Cc1cccc(NC(=O)C2CCCN(S(=O)(=O)c3ccc(Br)s3)C2)c1 (stereo not drawn) | inactive: -15.1%
Cc1cc(C)cc(NC(=O)Cn2c(=O)n(Cc3ccco3)c(=O)c3oc4ccccc4c32)c1 | inactive: -14.1%
COc1cc2ccccc2cc1C(=O)Nc1cccc(-c2nc3cc(C)ccc3o2)c1C | inactive: -2.2%
Cc1nn2c(=O)cc(COC(=O)COc3ccc(F)cc3)nc2s1 | inactive: -11%
Cc1nc2cccnc2n1-c1cccc(C(=O)NCCc2ccc(S(N)(=O)=O)cc2)c1 | inactive: -10.5%
COc1ccc(C(=O)NCCn2cc(SC(C)c3ccccc3)c3ccccc32)cc1OC (stereo not drawn) | inactive: 19.5%
Cc1ccc(N(C)C(=O)CCS(=O)(=O)c2cc3c(cc2Cl)NC(=O)CO3)cc1 | inactive: 10.8%
COc1cc(NC(=O)NCCN2CCN(c3ccccc3)CC2)cc(OC)c1OC | inactive: -13.8%
Cc1cc(C)c(S(=O)(=O)Nc2ccc(-c3ccc(N4CCCCCC4)nn3)cc2)cc1C | inactive: -7.15%
CCN(CC)c1ccc2cc(-c3nc(-c4ccccc4F)no3)c(=O)oc2c1 | inactive: -6.7%
CCO[C@@H]1O[C@H](C(COCc2ccccc2)OCc2ccccc2)[C@H](OCc2ccccc2)[C@H]1O (stereo partly drawn) | inactive: -2.5%

Compound | activation
Cc1cccc(NC(=O)CSc2nc3c(sc4ccccc43)c(=O)n2CCCC(=O)NC2CCCC2)c1 | inactive: -14%
Cc1cccc(C(=O)Nc2ccc(S(=O)(=O)N(Cc3ccccc3)c3ccccc3)cc2)c1 | inactive: 14.2%
CCc1ccc(NC(=O)Nc2nnc(N(C)C3CCCCC3)s2)cc1 | inactive: -8%
CC(=O)c1ccc(NC(=O)Cn2c(=O)nc(-c3ccccc3)c3cc(Cl)ccc32)cc1 | inactive: 2.36%
O=C(Nc1cccc(C(F)(F)F)c1)c1ccc2snnc2c1 | inactive: 23.2%
COc1cccc(NC(=O)c2oc3ccccc3c2NC(=O)c2cc3ccccc3o2)c1 | inactive: -1.69%
CCOC(=O)C1CCCN(c2ncnc3c2nnn3C)C1 (stereo not drawn) | inactive: -7%
Cc1cccc(N2CCN(C(=O)C3CCN(c4ncnc5c4nc4n5CCCCC4)CC3)CC2)c1C | inactive: 5.75%
O=S(=O)(Nc1ccc(F)cc1F)c1ccc(-n2cccn2)cc1 | active: 74.7%
Cc1nc2ccn(Cc3cccnc3)c(=O)c2cc1C(=O)Nc1ccc(F)cc1F | inactive: -7.11%
COCCCNC(=O)c1ccc(C)c(-n2c(C)nc3cccnc32)c1 | inactive: -1.28%
COCCn1c(SCC(=O)c2c[nH]c3ccccc23)nc2cc(C(=O)NC(C)C)ccc2c1=O | inactive: -8.47%
O=C(CN1C(=O)CCc2cc(S(=O)(=O)N3CCOCC3)ccc21)NCc1ccc(Cl)cc1 | inactive: 21.7%
CCOc1ccc(CCNC(=O)c2cc3c(s2)-c2c(C)cccc2OC3)cc1 | inactive: -1.68%
CCOc1ccc(-c2nnc(SCC(=O)c3ccc(Br)cc3)n2-c2ccccc2)cc1 | inactive: 8.04%
Cc1cccc(NC(=O)Cn2cc(C(=O)C3CCCCC3)c3ccccc32)c1 | inactive: -7.64%
COC(=O)c1cc(Cl)ccc1OC | inactive: -10.4%
CSc1ccc(CCNC(=O)NCc2noc3ccccc23)cc1 | inactive: -2.59%
CCOC(=O)CC(NC(=O)CCc1c(C)nc2c(-c3ccccc3)c(C)nn2c1C)c1ccc(OC(C)C)cc1 (stereo not drawn) | inactive: 5.91%
COc1cc2c(-c3cccc(Cl)c3)nc3c(c(C)nn3-c3ccccc3)c2cc1OC | inactive: -2.29%
COc1ccc(Cn2c(CCC(=O)NCc3ccc(Cl)cc3)nc3cccnc32)cc1 | inactive: -14%

Compound | activation
COc1cccc(CNC(=O)c2cnc3sc(N4CCCC4)nn3c2=O)c1OC | inactive: -3.69%
CCOC(=O)COc1ccc(C2C(C(=O)OC)=C(C)NC3=C2C(=O)c2ccccc23)cc1Cl (stereo not drawn) | inactive: -58.6%
O=C(CSc1cn(CC(=O)N2CCCC2)c2ccccc12)Nc1ccc(Cl)cc1 | inactive: 15%
COc1ccc(Cl)cc1NC(=O)c1cc2c(=O)n3ccccc3nc2s1 | inactive: -13.5%
COc1ccc(CNc2nc(-c3ccco3)nn2S(=O)(=O)c2ccc(Cl)cc2)cc1OC | inactive: -22.1%
Cc1ccc(C(=O)NCC(c2ccc3c(c2)OCO3)N2CCOCC2)cc1C (stereo not drawn) | inactive: -8.55%
CCOC(=O)c1cc(S(=O)(=O)Nc2cc(OC)ccc2OC)[nH]n1 | inactive: -0.852%
COC(=O)c1c(NC(=O)CCCOc2cccc(C)c2)sc2c1CCC2 | inactive: -3.14%
Cc1cc(O)c(C(c2cccc(F)c2)N2CCN(c3ccccc3)CC2)c(=O)n1Cc1ccco1 (stereo not drawn) | inactive: -21.7%
CN(c1ccccc1)S(=O)(=O)c1ccc(NC(=O)c2nc(S(C)(=O)=O)ncc2Cl)cc1 | inactive: -25.9%
COc1ccc(-c2c(C#N)c(SCC(=O)Nc3ccccc3C)nc(C)c2C(=O)Nc2ccc(Cl)cc2)cc1 | inactive: -18.9%
C[C@H]1O[C@H](O[C@H]2[C@H](O)[C@@H](O)[C@@H](O[C@H]3[C@H](O)[C@@H](O)[C@H](O)O[C@@H]3CO)O[C@@H]2CO)[C@H](O)[C@@H](O)[C@@H]1N[C@H]1C=C(CO)[C@@H](O)[C@H](O)[C@H]1O | inactive: -2.69%
Cc1cc(C)n(-c2nnc(Nc3ccc(C)c(C)c3)c3ccccc23)n1 | inactive: -30.4%
Cc1cc2c(cc1S(N)(=O)=O)S(=O)(=O)CCC2 | inactive: -4.41%
O=C1Nc2ccccc2Oc2cc(Oc3ccccc3)ccc21 | inactive: -14%
COc1ccc(NC(=O)Cn2c(SCc3ccc(C)cc3)nc3cccnc32)cc1OC | inactive: 49.3%
Cc1ccc(C)c(CN2C(=O)c3ccccc3S(=O)(=O)c3ccc(C(=O)OCC4CCCO4)cc32)c1 (stereo not drawn) | inactive: -9.57%
COc1ccc(NC(=O)c2sc3nc4c(cc3c2N)CN(Cc2ccccc2)CC4)c(OC)c1 | inactive: -26.9%
Cc1ccc(S(=O)(=O)N2CCC(C(=O)NCc3ccccc3Cl)CC2)cc1 | inactive: -17.6%
Cc1cccc(NC(=O)c2cc(S(=O)(=O)NCCc3ccccc3)ccc2F)c1C | inactive: -13%
